# Source: PubChem BioAssay (Tox21)
# Several values for one entry are separate records, joined by “and”; a condition that tells them apart may be missing. Equal entries are not always repeated. Inconclusive results, whose numbers are uncertain, are shown with a selection of clear calls. Potencies of inconclusive entries are doubtful fits and often do not repeat. Activity calls are given as the source filed them. The call rests on the fitted dose curve; in most records, active means well fitted inhibition curve with a large enough effect in the repeat runs; inconclusive means weak or mixed curves; inactive means no such curve, though single readings can be large or run the other way.
# Biological target: Cytochrome P450 3A4 (Homo sapiens) (UniProt P08684)
# Assay: Cytochrome P450 Family 3 Subfamily A Member 4 (CYP3A4) small molecule antagonists: luciferase reporter qHTS assay (AID 1671201); further: nearly all actives have a fitted effect of over 50% in size
# Details: P450-Glo CYP3A4 enzyme, luciferin luminescence, 1 h; series mostly up to 115 µM
# How it was run: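 Relative luminescence units after 20 min with luciferin detection reagent served as read-out. Beforehand, CYP3A4 turned over a proluciferin substrate for 1 h at room temperature with NADPH regeneration, following 10 min compound preincubation.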
# Potency means the concentration at half of the fitted maximal effect; tags describe the fitted curve by direction and shape.
# UniProt P08684, sequence (P08684 whole entry, looked up): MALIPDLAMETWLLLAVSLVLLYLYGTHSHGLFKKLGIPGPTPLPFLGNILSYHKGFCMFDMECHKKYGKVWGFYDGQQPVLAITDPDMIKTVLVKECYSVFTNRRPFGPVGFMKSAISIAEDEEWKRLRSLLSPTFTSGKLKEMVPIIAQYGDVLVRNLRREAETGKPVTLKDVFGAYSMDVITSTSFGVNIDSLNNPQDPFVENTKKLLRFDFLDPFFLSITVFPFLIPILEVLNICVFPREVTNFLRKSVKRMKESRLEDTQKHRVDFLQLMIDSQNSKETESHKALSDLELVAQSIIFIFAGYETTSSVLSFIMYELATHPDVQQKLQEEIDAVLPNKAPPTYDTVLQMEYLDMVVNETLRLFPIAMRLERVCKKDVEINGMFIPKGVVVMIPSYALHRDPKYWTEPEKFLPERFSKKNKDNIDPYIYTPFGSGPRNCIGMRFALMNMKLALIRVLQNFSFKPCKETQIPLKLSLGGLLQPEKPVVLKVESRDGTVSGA
row,Structure (SMILES),Potency
1,CCCN(CC1CC1)c1c([N+](=O)[O-])cc(C(F)(F)F)cc1[N+](=O)[O-],"inconclusive: 31.7 µM [inhibitor, partial curve]"
2,Oc1ccc(Cl)c(Cl)c1,"inconclusive: 62.3 µM [inhibitor, partial curve]"
3,CC[C@H](C)[C@H]1O[C@]2(C=C[C@@H]1C)C[C@@H]1C[C@@H](C/C=C(\C)[C@@H](O[C@H]3C[C@H](OC)[C@@H](O[C@H]4C[C@H](OC)[C@@H](NC)[C@H](C)O4)[C@H](C)O3)[C@@H](C)/C=C/C=C3\CO[C@@H]4[C@H](O)C(C)=C[C@@H](C(=O)O1)[C@]34O)O2,active: 1.59 µM
4,CCOP(=O)(SC(C)CC)N1CCSC1=O (configuration not stated),"inconclusive: 12.6 µM [inhibitor, full curve]"
5,CCOS(=O)(=O)OCC,"inconclusive: 14.2 µM [inhibitor, partial curve]"
6,C=CC(=O)OCCN(C)C,inactive
7,Cc1ccc(N)cc1N,"inconclusive: 12.6 µM [inhibitor, partial curve]"
8,CC(=O)c1cc2c(cc1C)C(C)(C)C(C)CC2(C)C (configuration not stated),active: 25.2 µM
9,C=CCc1cc(OC)c2c(c1)OCO2,active: 4.69 µM
10,O=[N+]([O-])C(Br)Br,inactive
11,OC(Cc1ccccc1Cl)(Cn1[nH]cnc1=S)C1(Cl)CC1 (configuration not stated),active: 5.64 µM
12,CC(c1ccc(O)cc1)c1ccc(O)cc1,"inconclusive: 44.8 µM [inhibitor, partial curve]"
13,CCC(C)(CC)c1cc(NC(=O)c2c(OC)cccc2OC)on1,active: 799 nM and active: 1.93 µM
14,CCCCCCOC(=O)c1ccccc1C(=O)OCCCCCC,"inconclusive: 8.13 µM [inhibitor, full curve] and inconclusive: 5.64 µM [inhibitor, full curve]"
15,Nc1ccc(Cc2ccc(N)c(Cl)c2)cc1Cl,active: 3.44 µM
16,CC(C)CCCCCOC(=O)c1ccccc1C(=O)OCCCCCC(C)C,active: 2.79 µM
17,CCCCNC(=O)OCC#CI,active: 3.54 µM and active: 5.64 µM
